Test results: the supplement of paper PMC4604168 (melanoma cell lines)
The list shows a part of the results. Many values rest on one well or one pass, so single values are uncertain.

Legend:
Experiment in all cases: cell count relative to DMSO control; melanoma cells; higher = more viable cells
Conditions in all cases: library dose: low library concentration; 72 h; first compound 0.4 µM
WM115 = test system: WM115
WM1716 = test system: WM1716
WM1745 = test system: WM1745
WM3526 = test system: WM3526
WM3619 = test system: WM3619
WM451Lu = test system: WM451Lu
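Also: cell number obtained by counting DAPI-stained nuclei in high-throughput microscope images with image analysis software, screen run in 1,536-well plates.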

| Structure (SMILES) | cell count (WM115) | cell count (WM1716) | cell count (WM1745) | cell count (WM3526) | cell count (WM3619) | cell count (WM451Lu) |
| --- | --- | --- | --- | --- | --- | --- |
| CCCCCCCCCCCCCCCCCCOP(=O)([O-])OC1CC[N+](C)(C)CC1 [Perifosine] + O=C(O)[C@@H]1[O][Sb](=[O])([O][Sb]2(=[O])[O][C@H]([C@H](O)CO)[C@H](O)[C@H](C(=O)O)[O]2)[O][C@H]([C@H](O)CO)[C@@H]1O [stibogluconate] (partner dose 2 µM) | 98.8% | 100% | 95.8% | 88.8% | 97.2% | 106% |
| CCCCCCCCCCCCCCCCCCOP(=O)([O-])OC1CC[N+](C)(C)CC1 [Perifosine] + C[C@@H]1CCN(C(=O)CC#N)C[C@@H]1N(C)c1ncnc2[nH]ccc12 [CP690550] (partner dose 1 µM) | 95.5% | 105% | 76.5% | 153% | 93.2% | 64% |
| Cn1sc(=O)n(Cc2ccccc2)c1=O + O=C(Nc1cccc(Cl)c1)Nc1ncc(CCNc2ncnc3ccsc23)s1 [SNS314] (partner dose 0.0008 µM) | 80.8% | 109% | 85.4% | 83.3% | 94.7% | 68.4% |
| CCCCCCCCCCCCCCCCCCOP(=O)([O-])OC1CC[N+](C)(C)CC1 [Perifosine] + CC(C)CCN1c2nc(Nc3cc(F)c(O)c(F)c3)ncc2N(C)C(=O)C1C [BID1870] (partner dose 0.2 µM) | 87.2% | 103% | 104% | 78% | 104% | 108% |
| C[C@@H](N)c1ccc(C(=O)Nc2ccnc3[nH]ccc23)cc1 + CN1CCN(c2ccc3nc(-c4c(N)c5c(F)cccc5[nH]c4=O)[nH]c3c2)CC1 [Dovitinib] (partner dose 0.1 µM) | 122% | 81.8% | 64.5% | 101% | 82.7% | 104% |
| Cn1sc(=O)n(Cc2ccccc2)c1=O + O=S(=O)(c1ccccc1)N(CC(F)(F)F)c1ccc(C(O)(C(F)(F)F)C(F)(F)F)cc1 [T0901317] (partner dose 1.4 µM) | 100% | 88% | 76% | 79.4% | 102% | 96.1% |
| C[C@@H](N)c1ccc(C(=O)Nc2ccnc3[nH]ccc23)cc1 + O=c1cc(-c2cccc3c2Sc2ccccc2S3)oc(N2CCOCC2)c1 [KU55933] (partner dose 1 µM) | 102% | 64.6% | 88.7% | 113% | 95.5% | 99.8% |
| CCCCCCCCCCCCCCCCCCOP(=O)([O-])OC1CC[N+](C)(C)CC1 [Perifosine] + Cc1cc(N2CCOCC2)cc2[nH]c(-c3c(NC[C@@H](O)c4cccc(Cl)c4)cc[nH]c3=O)nc12 [BMS536924] (partner dose 0.2 µM) | 116% | 89.4% | 64.3% | 95.6% | 91.5% | 114% |
| C[C@@H](N)c1ccc(C(=O)Nc2ccnc3[nH]ccc23)cc1 + CN(NC(=O)CC(=O)NN(C)C(=S)c1ccccc1)C(=S)c1ccccc1 [STA4783] (partner dose 0.006 µM) | 90.1% | 44.7% | 30.5% | 112% | 51.2% | 86.3% |
| CCCCCCCCCCCCCCCCCCOP(=O)([O-])OC1CC[N+](C)(C)CC1 [Perifosine] + CN1CCN(c2ccc3nc(-c4c(N)c5c(F)cccc5[nH]c4=O)[nH]c3c2)CC1 [Dovitinib] (partner dose 0.1 µM) | 102% | 99.5% | 90% | 96.8% | 73.2% | 110% |
| CCCCCCCCCCCCCCCCCCOP(=O)([O-])OC1CC[N+](C)(C)CC1 [Perifosine] + O=C(O)c1ccc(-c2c[nH]c3ncc(-c4ccccc4)cc23)cc1C1CCCC1 [GSK650394] (partner dose 0.16 µM) | 91.8% | 88.4% | 93.4% | 81.2% | 87.9% | 109% |
| CCCCCCCCCCCCCCCCCCOP(=O)([O-])OC1CC[N+](C)(C)CC1 [Perifosine] + Cc1cn(-c2cc(NC(=O)c3ccc(C)c(Nc4nccc(-c5cccnc5)n4)c3)cc(C(F)(F)F)c2)cn1 [nilotinib] (partner dose 0.2 µM) | 113% | 116% | 75.9% | 89.4% | 97.2% | 118% |
| Cn1sc(=O)n(Cc2ccccc2)c1=O + COc1cc2ncnc(Nc3ccc(Oc4ccccc4)cc3)c2cc1OC [SrcI1] (partner dose 2 µM) | 103% | 135% | 94.2% | 95.7% | 94.7% | 104% |
| Cn1sc(=O)n(Cc2ccccc2)c1=O + N#Cc1c(O)c2c(-c3ccc(-c4ccccc4O)cc3)csc2[nH]c1=O [A769662] (partner dose 2 µM) | 105% | 95.8% | 99.9% | 90.1% | 98% | 129% |
| CCCCCCCCCCCCCCCCCCOP(=O)([O-])OC1CC[N+](C)(C)CC1 [Perifosine] + Cn1sc(=O)n(Cc2ccccc2)c1=O [TDZD-8] (partner dose 0.4 µM) | 91.6% | 101% | 86.7% | 94.7% | 97.5% | 68.8% |
| C[C@@H](N)c1ccc(C(=O)Nc2ccnc3[nH]ccc23)cc1 + COC(=O)c1sccc1S(=O)(=O)Nc1ccc(Nc2ccccc2)cc1OC [GSK0660] (partner dose 1 µM) | 98.9% | 63.7% | 90.7% | 109% | 98.1% | 95.2% |
| C[C@@H](N)c1ccc(C(=O)Nc2ccnc3[nH]ccc23)cc1 + CS(=O)(=O)CCNCc1ccc(-c2ccc3ncnc(Nc4ccc(OCc5cccc(F)c5)c(Cl)c4)c3c2)o1 [lapatinib] (partner dose 0.8 µM) | 111% | 71.1% | 64.5% | 100% | 59.8% | 89.1% |
| CCCCCCCCCCCCCCCCCCOP(=O)([O-])OC1CC[N+](C)(C)CC1 [Perifosine] + Nc1nc(F)nc2c1ncn2[C@@H]1O[C@H](CO)[C@@H](O)[C@@H]1O [fludarabine] (partner dose 0.2 µM) | 97.5% | 92.4% | 87.6% | 36.4% | 89.2% | 50% |
| C[C@@H](N)c1ccc(C(=O)Nc2ccnc3[nH]ccc23)cc1 + Cc1ccc(NC(=O)c2cccc(N(C)C)c2)cc1NC(=O)c1ccc(O)cc1 [ZM336372] (partner dose 2 µM) | 108% | 71.4% | 88% | 99.9% | 103% | 93.9% |
| Cn1sc(=O)n(Cc2ccccc2)c1=O + O=C(CCCCCCC(=O)Nc1ccccc1)NO [vorinostat] (partner dose 0.08 µM) | 109% | 120% | 92.1% | 83% | 82.8% | 102% |
| C[C@@H](N)c1ccc(C(=O)Nc2ccnc3[nH]ccc23)cc1 + COCC[n+]1c2c(n(Cc3cnccn3)c1C)C(=O)c1ccccc1C2=O [YM155] (partner dose 0.0004 µM) | 107% | 75% | 81.4% | 129% | 143% | 74.1% |
| C[C@@H](N)c1ccc(C(=O)Nc2ccnc3[nH]ccc23)cc1 + Oc1cc(-c2nc(-c3ccccc3)[nH]c2-c2ccncc2)ccc1Cl [L779450] (partner dose 0.2 µM) | 74.1% | 77.1% | 59.4% | 84.8% | 102% | 94.3% |
| CCCCCCCCCCCCCCCCCCOP(=O)([O-])OC1CC[N+](C)(C)CC1 [Perifosine] + OCCn1cc(-c2cnc3nnn(Cc4ccc5ncccc5c4)c3n2)cn1 [PF04217903] (partner dose 1 µM) | 86.1% | 76.6% | 68.3% | 70.3% | 80.1% | 69.5% |
| C[C@@H](N)c1ccc(C(=O)Nc2ccnc3[nH]ccc23)cc1 + c1cc(-c2cnn3cc(-c4ccc(OCCN5CCCCC5)cc4)cnc23)ccn1 [Dorsomorphin] (partner dose 0.4 µM) | 97.2% | 71.6% | 73% | 109% | 93.8% | 91.2% |
| Cn1sc(=O)n(Cc2ccccc2)c1=O + COc1ccc(Cl)c(Nc2nc3ccccc3nc2NS(=O)(=O)c2cccc(NC(=O)C(C)(C)N)c2)c1 [XL147] (partner dose 0.8 µM) | 107% | 84.1% | 94.9% | 112% | 94.5% | 123% |
| CCCCCCCCCCCCCCCCCCOP(=O)([O-])OC1CC[N+](C)(C)CC1 [Perifosine] + O=C(Nc1ccccc1)c1cc([N+](=O)[O-])ccc1Cl [GW9662] (partner dose 2 µM) | 99% | 98.3% | 93% | 95.3% | 86.7% | 95.7% |
| CCCCCCCCCCCCCCCCCCOP(=O)([O-])OC1CC[N+](C)(C)CC1 [Perifosine] + Cn1cncc1[C@@](N)(c1ccc(Cl)cc1)c1ccc2c(c1)c(-c1cccc(Cl)c1)cc(=O)n2C [tipifarnib] (partner dose 0.01 µM) | 74% | 66% | 4.44% | 72.4% | 78.5% | 69% |
| C[C@@H](N)c1ccc(C(=O)Nc2ccnc3[nH]ccc23)cc1 + Nc1ncn([C@H]2C[C@H](O)[C@@H](CO)O2)c(=O)n1 [decitabine] (partner dose 0.1 µM) | 87.1% | 54.2% | 83.3% | 105% | 95.2% | 90.1% |
